The other results are listed elsewhere or left out. The list includes weakly bound sequences.
Each sequence was assayed against T1, MBP-FoxP3dN (UniProt Q99JB6) (assay: PD-seq (MBP pull-down with sequencing)). Conditions: 20 mM Tris-HCl pH 7.5, 100 mM NaCl, 1.5 mM MgCl2, 0.4 uM protein, 0.1 uM dsDNA library, 30 min, room temperature, amylose pull-down; high values mean tight binding; double strand, one strand shown.
T1 sequence: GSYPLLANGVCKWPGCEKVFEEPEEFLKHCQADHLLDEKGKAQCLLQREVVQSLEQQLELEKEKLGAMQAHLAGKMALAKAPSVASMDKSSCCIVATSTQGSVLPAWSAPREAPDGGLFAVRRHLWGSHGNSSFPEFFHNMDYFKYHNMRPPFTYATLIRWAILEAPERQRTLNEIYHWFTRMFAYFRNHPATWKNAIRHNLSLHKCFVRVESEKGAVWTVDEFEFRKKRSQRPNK

Sequence | binding signal (RPM ratio (pull-down/input))
GATGATTGTTCTCCCAGCTGATGAATTATATCATTCGAGTAAACAAATTTTCCTAATCTTTCTGTTCAAGCGCCATCTAC | 1.65
GATGATTGTTCTCCCAGCTGATGAATTGGCATACTCGAGTAAACAAATTTTCCTAATCTTTCTGTTCAAGCGCCATCTAC | 0.986
GATGATTGTTCTCCCAGCTGATGAATTTATGGCGTCGAGTAAACAAATTTTCCTAATCTTTCTGTTCAAGCGCCATCTAC | 1.37
GATGATTGTTCTCCCAGCTGATGAATTCCTACACTCGAGTAAACAAATTTTCCTAATCTTTCTGTTCAAGCGCCATCTAC | 0.302
GATGATTGTTCTCCCAGCTGATGAATTCACGTGCTCGAGTAAACAAATTTTCCTAATCTTTCTGTTCAAGCGCCATCTAC | 0.404
GATGATTGTTCTCCCAGCTGATGAATTCCGCAAATCGAGTAAACAAATTTTCCTAATCTTTCTGTTCAAGCGCCATCTAC | 0.692
GATGATTGTTCTCCCAGCTGATGAATTACGATGCTCGAGTAAACAAATTTTCCTAATCTTTCTGTTCAAGCGCCATCTAC | 1
GATGATTGTTCTCCCAGCTGATGAATTCCATTCCTCGAGTAAACAAATTTTCCTAATCTTTCTGTTCAAGCGCCATCTAC | 0.41
GATGATTGTTCTCCCAGCTGATGAATTACAGTCGTCGAGTAAACAAATTTTCCTAATCTTTCTGTTCAAGCGCCATCTAC | 0.651
GATGATTGTTCTCCCAGCTGATGAATTAGCCTTATCGAGTAAACAAATTTTCCTAATCTTTCTGTTCAAGCGCCATCTAC | 0.706
GATGATTGTTCTCCCAGCTGATGAATTTTTAACCTCGAGTAAACAAATTTTCCTAATCTTTCTGTTCAAGCGCCATCTAC | 0.204
GATGATTGTTCTCCCAGCTGATGAATTGGTGCGCTCGAGTAAACAAATTTTCCTAATCTTTCTGTTCAAGCGCCATCTAC | 0.687
GATGATTGTTCTCCCAGCTGATGAATTCGGTTCCTCGAGTAAACAAATTTTCCTAATCTTTCTGTTCAAGCGCCATCTAC | 1.1
GATGATTGTTCTCCCAGCTGATGAATTTGCCTAGTCGAGTAAACAAATTTTCCTAATCTTTCTGTTCAAGCGCCATCTAC | 0.539
GATGATTGTTCTCCCAGCTGATGAATTGCTGAGATCGAGTAAACAAATTTTCCTAATCTTTCTGTTCAAGCGCCATCTAC | 0.43
GATGATTGTTCTCCCAGCTGATGAATTGATGCGTTCGAGTAAACAAATTTTCCTAATCTTTCTGTTCAAGCGCCATCTAC | 3.5
GATGATTGTTCTCCCAGCTGATGAATTACGAGAATCGAGTAAACAAATTTTCCTAATCTTTCTGTTCAAGCGCCATCTAC | 0.23
GATGATTGTTCTCCCAGCTGATGAATTGGCAAACTCGAGTAAACAAATTTTCCTAATCTTTCTGTTCAAGCGCCATCTAC | 0.397
GATGATTGTTCTCCCAGCTGATGAATTTGTCTGGTCGAGTAAACAAATTTTCCTAATCTTTCTGTTCAAGCGCCATCTAC | 3.6
GATGATTGTTCTCCCAGCTGATGAATTGATAATTTCGAGTAAACAAATTTTCCTAATCTTTCTGTTCAAGCGCCATCTAC | 0.378
GATGATTGTTCTCCCAGCTGATGAATTATATGCTTCGAGTAAACAAATTTTCCTAATCTTTCTGTTCAAGCGCCATCTAC | 0.889

Sequence | binding signal (RPM ratio (pull-down/input))
GATGATTGTTCTCCCAGCTGATGAATTTGACAAATCGAGTAAACAAATTTTCCTAATCTTTCTGTTCAAGCGCCATCTAC | 0.223
GATGATTGTTCTCCCAGCTGATGAATTATCGTTCTCGAGTAAACAAATTTTCCTAATCTTTCTGTTCAAGCGCCATCTAC | 0.654
GATGATTGTTCTCCCAGCTGATGAATTCTCCAGTTCGAGTAAACAAATTTTCCTAATCTTTCTGTTCAAGCGCCATCTAC | 0.204
GATGATTGTTCTCCCAGCTGATGAATTTGCAGATTCGAGTAAACAAATTTTCCTAATCTTTCTGTTCAAGCGCCATCTAC | 0.409
GATGATTGTTCTCCCAGCTGATGAATTCCTTCGTTCGAGTAAACAAATTTTCCTAATCTTTCTGTTCAAGCGCCATCTAC | 0.24
GATGATTGTTCTCCCAGCTGATGAATTTTGTCATTCGAGTAAACAAATTTTCCTAATCTTTCTGTTCAAGCGCCATCTAC | 4.89
GATGATTGTTCTCCCAGCTGATGAATTGATAAGATCGAGTAAACAAATTTTCCTAATCTTTCTGTTCAAGCGCCATCTAC | 0.26
GATGATTGTTCTCCCAGCTGATGAATTGGGAGATTCGAGTAAACAAATTTTCCTAATCTTTCTGTTCAAGCGCCATCTAC | 0.372
GATGATTGTTCTCCCAGCTGATGAATTGAGTGAGTCGAGTAAACAAATTTTCCTAATCTTTCTGTTCAAGCGCCATCTAC | 0.621
GATGATTGTTCTCCCAGCTGATGAATTACGCATGTCGAGTAAACAAATTTTCCTAATCTTTCTGTTCAAGCGCCATCTAC | 6.15
GATGATTGTTCTCCCAGCTGATGAATTTCTACCGTCGAGTAAACAAATTTTCCTAATCTTTCTGTTCAAGCGCCATCTAC | 0.222
GATGATTGTTCTCCCAGCTGATGAATTACAGTGGTCGAGTAAACAAATTTTCCTAATCTTTCTGTTCAAGCGCCATCTAC | 0.54
GATGATTGTTCTCCCAGCTGATGAATTACAGTGCTCGAGTAAACAAATTTTCCTAATCTTTCTGTTCAAGCGCCATCTAC | 0.611
GATGATTGTTCTCCCAGCTGATGAATTCCCCTGGTCGAGTAAACAAATTTTCCTAATCTTTCTGTTCAAGCGCCATCTAC | 0.17
GATGATTGTTCTCCCAGCTGATGAATTCCCTGGGTCGAGTAAACAAATTTTCCTAATCTTTCTGTTCAAGCGCCATCTAC | 0.187
GATGATTGTTCTCCCAGCTGATGAATTTCTGTGATCGAGTAAACAAATTTTCCTAATCTTTCTGTTCAAGCGCCATCTAC | 0.408
GATGATTGTTCTCCCAGCTGATGAATTCTTCCACTCGAGTAAACAAATTTTCCTAATCTTTCTGTTCAAGCGCCATCTAC | 0.293
GATGATTGTTCTCCCAGCTGATGAATTTCGGGGATCGAGTAAACAAATTTTCCTAATCTTTCTGTTCAAGCGCCATCTAC | 0.288
GATGATTGTTCTCCCAGCTGATGAATTATCTGCGTCGAGTAAACAAATTTTCCTAATCTTTCTGTTCAAGCGCCATCTAC | 0.58
GATGATTGTTCTCCCAGCTGATGAATTGGAGCGCTCGAGTAAACAAATTTTCCTAATCTTTCTGTTCAAGCGCCATCTAC | 0.319
GATGATTGTTCTCCCAGCTGATGAATTATCAACCTCGAGTAAACAAATTTTCCTAATCTTTCTGTTCAAGCGCCATCTAC | 0.366

Sequence | binding signal (RPM ratio (pull-down/input))
GATGATTGTTCTCCCAGCTGATGAATTCCTCAGATCGAGTAAACAAATTTTCCTAATCTTTCTGTTCAAGCGCCATCTAC | 0.195
GATGATTGTTCTCCCAGCTGATGAATTAACACGATCGAGTAAACAAATTTTCCTAATCTTTCTGTTCAAGCGCCATCTAC | 0.335
GATGATTGTTCTCCCAGCTGATGAATTTTGATATTCGAGTAAACAAATTTTCCTAATCTTTCTGTTCAAGCGCCATCTAC | 3.34
GATGATTGTTCTCCCAGCTGATGAATTAATGGCATCGAGTAAACAAATTTTCCTAATCTTTCTGTTCAAGCGCCATCTAC | 1.12
GATGATTGTTCTCCCAGCTGATGAATTCTTCCAGTCGAGTAAACAAATTTTCCTAATCTTTCTGTTCAAGCGCCATCTAC | 0.207
GATGATTGTTCTCCCAGCTGATGAATTTAGAGTTTCGAGTAAACAAATTTTCCTAATCTTTCTGTTCAAGCGCCATCTAC | 1.41
GATGATTGTTCTCCCAGCTGATGAATTCCAGGACTCGAGTAAACAAATTTTCCTAATCTTTCTGTTCAAGCGCCATCTAC | 0.223
GATGATTGTTCTCCCAGCTGATGAATTCCGGATCTCGAGTAAACAAATTTTCCTAATCTTTCTGTTCAAGCGCCATCTAC | 0.23
GATGATTGTTCTCCCAGCTGATGAATTCTTGTACTCGAGTAAACAAATTTTCCTAATCTTTCTGTTCAAGCGCCATCTAC | 0.415
GATGATTGTTCTCCCAGCTGATGAATTTATGCGTTCGAGTAAACAAATTTTCCTAATCTTTCTGTTCAAGCGCCATCTAC | 2.61
GATGATTGTTCTCCCAGCTGATGAATTTCCCTATTCGAGTAAACAAATTTTCCTAATCTTTCTGTTCAAGCGCCATCTAC | 0.314
GATGATTGTTCTCCCAGCTGATGAATTGCCAGATTCGAGTAAACAAATTTTCCTAATCTTTCTGTTCAAGCGCCATCTAC | 0.409
GATGATTGTTCTCCCAGCTGATGAATTTGGGTTGTCGAGTAAACAAATTTTCCTAATCTTTCTGTTCAAGCGCCATCTAC | 1.1
GATGATTGTTCTCCCAGCTGATGAATTGATTAACTCGAGTAAACAAATTTTCCTAATCTTTCTGTTCAAGCGCCATCTAC | 0.37
GATGATTGTTCTCCCAGCTGATGAATTCAATTATTCGAGTAAACAAATTTTCCTAATCTTTCTGTTCAAGCGCCATCTAC | 2.26
GATGATTGTTCTCCCAGCTGATGAATTCATTGATTCGAGTAAACAAATTTTCCTAATCTTTCTGTTCAAGCGCCATCTAC | 1.18
GATGATTGTTCTCCCAGCTGATGAATTATGCGAGTCGAGTAAACAAATTTTCCTAATCTTTCTGTTCAAGCGCCATCTAC | 1.6
GATGATTGTTCTCCCAGCTGATGAATTGTGTAGTTCGAGTAAACAAATTTTCCTAATCTTTCTGTTCAAGCGCCATCTAC | 3.86
GATGATTGTTCTCCCAGCTGATGAATTACTCTTTTCGAGTAAACAAATTTTCCTAATCTTTCTGTTCAAGCGCCATCTAC | 0.279
GATGATTGTTCTCCCAGCTGATGAATTGTACCAATCGAGTAAACAAATTTTCCTAATCTTTCTGTTCAAGCGCCATCTAC | 0.507
GATGATTGTTCTCCCAGCTGATGAATTAAGAAAGTCGAGTAAACAAATTTTCCTAATCTTTCTGTTCAAGCGCCATCTAC | 0.179
